These results are taken from PubChem BioAssay AID1508624 (National Center for Advancing Translational Sciences (NCATS), 2021).

The assay is described as follows: Primary qHTS for Identification of Small Molecule Activators of Huntingtin-Antisense Promoter Activity. Further: nearly all actives have a fitted effect of over 55% in size. The conditions noted are these: HEK293 HTT-AS promoter firefly luciferase reporter, 24 h. Put shortly:
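HEK293 luciferase promoter-reporter cells (2,500/well) plated 24 h, then compounds added at up to 57.5 uM final for 24 h at 37 °C. Firefly luminescence by Dual-Glo, normalized to vehicle (0%) and zero RLU (-100%).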
Background: qHTS replaces the single test concentration by a dilution series.

Where [1] appears, read: at 57.5 µM (top of the series) unless noted.

Each structure is given as a SMILES string. Where “and” joins values, the source holds several entries; their conditions need not be identical. Equal values may be shown once. About 120 (0.25%) of roughly 48,000 compounds were called active. About 4% were inconclusive and are not listed. The call rests on the fitted dose curve; in most records, active means well fitted activation curve with a large enough effect; inconclusive means small, poorly fitted or top-dose-only effect, or another doubt; inactive means no such curve, though single readings can be large or run the other way. Some of the results follow.

With `CC(=O)OCC1=C(C(=O)O)N2C(=O)[C@@H](N)[C@H]2SC1`, under setting [1], the activity change, positive = activation was inactive: -0.567% [at 25.1 µM].

With `CCOP(=O)(OCC)C(C)NC(=O)N(CCCl)N=O` (stereo unspecified), under setting [1], the activity change, positive = activation was inactive: -4.7%. Same read-out and setting: in the case of `COC(=O)c1cncn1C(C)c1ccccc1` (stereo unspecified) it was inactive: -8.98%. For the compound `C[C@H]1C(=O)O[C@@H]2CCN3CC=C(COC(=O)[C@](C)(O)[C@]1(C)O)[C@H]23`, the activity change, positive = activation under setting [1] is inactive: -13.5%.

Turning to `Cc1cccc(OCC(=O)N2CCN(Cc3cc(=O)n4nc(-c5ccccc5Cl)sc4n3)CC2)c1`, the activity change, positive = activation under setting [1] was inactive: -7.21% [at 57.5 µM, percent change from vehicle, -100% = no light]. On the same count and under the same terms, in the case of `Cc1ccccc1-c1nn2c(=O)cc(CN3CCN(C(=O)COc4ccccc4Cl)CC3)nc2s1` it was inactive: -28.9% [at 57.5 µM, percent change from vehicle, -100% = no light]. Same read-out and setting: in the case of `CN1C(=O)NC(=O)C(C)(C2=CCCCC2)C1=O` (stereo unspecified) it was inactive: -5%.

Consider `CC(CC(C(N)=O)(c1ccccc1)c1ccccc1)N(C)C` (stereo unspecified), for which the activity change, positive = activation under setting [1] was inactive: 2.75%. The same measure, in the same setting: as for `CN1C(=O)CN=C(c2ccccc2)c2cc([N+](=O)[O-])ccc21`, the figure is inactive: -9.71%.

For the compound `Cc1ccc(-n2c(/C=C\c3ccc(F)c(F)c3)nc3ccccc3c2=O)c(C)c1`, the activity change, positive = activation under setting [1] is inactive: -32.3%. As for `Cc1ccc(NC(=O)CN2C(=O)CN=C(c3ccccc3)c3ccccc32)cc1Cl`, the activity change, positive = activation under setting [1] was inactive: -36%.

As for `O=S(=O)(F)Cc1ccccc1`, the activity change, positive = activation under setting [1] was inactive: -0.242%. Regarding `CCOc1ccccc1NC(=O)c1cccn(Cc2ccccc2C)c1=O`, under setting [1], the activity change, positive = activation is inactive: -21.2%.

For `CCSc1nnc(NC(=O)c2cccn(Cc3ccccc3Cl)c2=O)s1`, the activity change, positive = activation under setting [1] is inactive: 34.4%. Turning to `COc1ccc(C(c2c(O)c3ccccc3oc2=O)c2c(C)n(C)n(-c3ccccc3)c2=O)cc1` (stereo unspecified), the activity change, positive = activation under setting [1] was inactive: -17.4%. As to `N#Cc1cc2c(nc1SCC(=O)Nc1cccc(C(F)(F)F)c1)C1CCN2CC1`, the activity change, positive = activation under setting [1] was inactive: -47.1%. With `O=C1CN2CCOC2(c2ccccc2Cl)c2cc(Cl)ccc2N1` (stereo unspecified), under setting [1], the activity change, positive = activation is inactive: -9%. As for `Clc1ccc(CCC(Cn2ccnc2)Sc2c(Cl)cccc2Cl)cc1` (stereo unspecified), the activity change, positive = activation (at 57.5 µM (top of the series)) was inactive: -28.1% and the activity change, positive = activation (at 57.5 µM (top of the series), percent change from vehicle, -100% = no light) was inactive: -35%. For the compound `C[N+](C)(C)CCOC(=O)C(O)(c1ccccc1)c1ccccc1`, under setting [1], the activity change, positive = activation was inactive: -16.3%. Same read-out and setting: as for `CC(=O)c1cccc(NC(=O)c2cccn(Cc3cccc(C)c3)c2=O)c1`, the figure is inactive: -16%; as for `CCC(=O)C(CCN(C)C)(c1ccccc1)c1ccccc1`, inactive: -2.29%; as for `COC(=O)C(Cl)C(=O)OC`, inactive: -11.4%. For the compound `COc1ccc(NC(=O)CN2C(=O)C(C)N=C(c3ccccc3)c3ccccc32)cc1OC` (stereo unspecified), the activity change, positive = activation under setting [1] is inactive: -5.39% [at 57.5 µM, percent change from vehicle, -100% = no light].

Regarding `CC(C)c1c(CN(C)C(C)Cc2ccccc2)n(C)n(-c2ccccc2)c1=O` (stereo unspecified), under setting [1], the activity change, positive = activation is inactive: 2.64%. On the same count and under the same terms, in the case of `Cc1ccc(Cn2cccc(C(=O)Nc3nc4ccc(C)cc4s3)c2=O)cc1` it was inactive: -20.4%; in that of `Oc1ccc(Cl)cc1`, inactive: -2.28%. On the same count and under the same terms, in the case of `COc1ccc(C(=O)c2c(C)n(CCN3CCOCC3)c3cc(I)ccc23)cc1` it was inactive: -28.8%; in that of `Cc1ccc(OCC(=O)Nc2ccc(Cl)cc2C(=O)c2ccccc2)c(Br)c1`, inactive: -1.29% [at 57.5 µM, percent change from vehicle, -100% = no light]; in that of `O=P1(NCCCl)OCCCN1CCCl` (stereo unspecified), inactive: -1.73% and inactive: -14.6%. On the same count and under the same terms, in the case of `CCc1ccc(-n2nc(C)c3c2NC(=O)CSC3c2ccccc2C)cc1` (stereo unspecified) it was inactive: -36.7%. `O=S(=O)(c1ccc(Cl)cc1)c1ccc(Cl)cc1`: under setting [1], the activity change, positive = activation is inactive: -13.7% [at 116 µM]. Same read-out and setting: as for `CC(C)NC(C)C`, the figure is inactive: -0.938%.

Take `NC(=O)CN1CCCC1=O`: the activity change, positive = activation under setting [1] is inactive: -5.01%. With `O=c1[nH]c2ccccc2n1C1CCNCC1`, the activity change, positive = activation under setting [1] is inactive: -7.11%. Same read-out and setting: in the case of `ClCCN1CCCC1` it was inactive: -1.31%. `N[C@@H](Cc1ccc(Oc2cc(I)c(O)c(I)c2)c(I)c1)C(=O)O`: the activity change, positive = activation under setting [1] is inactive: -13.2%.

As to `O=C(Oc1ccc([N+](=O)[O-])cc1)N1CCC(C(O)(c2ccc3c(c2)OCO3)c2ccc3c(c2)OCO3)CC1`, the activity change, positive = activation under setting [1] is inactive: -12.6%. Still for that read-out and setting: as for `CN1C(=O)COc2c(C(=O)NC3CN4CCC3CC4)cc(Cl)cc21` (stereo unspecified), the figure is inactive: -5.58% and inactive: 6.44%; as for `O=C(Nc1ccc(F)c(Cl)c1)N(Cc1ccc2c(c1)OCO2)C1CCN(Cc2ccccc2)CC1`, inactive: -22.2%. Regarding `Cc1ccc(S(=O)(=O)N[C@@H](CCCCN)C(=O)CCl)cc1`, the activity change, positive = activation under setting [1] was inactive: -5.73%. On the same count and under the same terms, as for `O=C1CN=C(c2ccccc2)c2cc([N+](=O)[O-])ccc2N1`, the figure is inactive: -8%; as for `CCOc1ccc2nc(NC(=O)c3cccn(Cc4ccc(C)cc4)c3=O)sc2c1`, inactive: -20.8%.

Consider `O=C1CCC[C@@H]2[C@H]3CCCN4CCC[C@@H](CN12)[C@@H]34`, for which the activity change, positive = activation under setting [1] is inactive: -11.7%. Still for that read-out and setting: in the case of `Cc1cccc(C)c1NC1=NCCCS1` it was inactive: -7.36%. On the same count and under the same terms, as for `O=C(Nc1ccccc1)N(Cc1ccc2c(c1)OCO2)C1CCN(Cc2ccccc2)CC1`, the figure is inactive: -13.7% [at 57.5 µM, percent change from vehicle, -100% = no light]; as for `Nc1ccc(N)cc1`, inactive: 8.1%; as for `O=C(Nc1ccon1)c1cccn(Cc2cccc([N+](=O)[O-])c2)c1=O`, inactive: -15.1%. On the same count and under the same terms, in the case of `CCOC(=O)C1(c2ccccc2)CCN(CCc2ccc(N)cc2)CC1` it was inactive: -8.14%. For the compound `O=C(Nc1ccc2c(c1)OCO2)c1cccn(Cc2ccccc2)c1=O`, under setting [1], the activity change, positive = activation was inactive: 16.2%.

On to `COC(=O)c1ccccc1NC(=O)c1cccn(Cc2cccc(Cl)c2)c1=O`, for which the activity change, positive = activation under setting [1] was inactive: -41% [at 57.5 µM, percent change from vehicle, -100% = no light].

`CCO/N=C(\CC)C1=C(O)CC(c2c(C)cc(C)cc2C)CC1=O` (stereo unspecified): under setting [1], the activity change, positive = activation is inactive: -10% [at 116 µM].

As for `Clc1ccccc1C(c1ccccc1)(c1ccccc1)n1cccn1`, under setting [1], the activity change, positive = activation was inactive: -7.24%. With `CCc1ccc(C2CCNCC2)cc1`, the activity change, positive = activation under setting [1] is inactive: -3.07%.

As for `Clc1ccc(C(OCCN2CCCCC2)c2ccccc2)cc1` (stereo unspecified), under setting [1], the activity change, positive = activation was inactive: -23.6%.

With `CCCSP(=O)(OCC)SCCC`, the activity change, positive = activation under setting [1] is inactive: -5.15% [at 116 µM].
